From PubChem BioAssay AID488969 (Vanderbilt High Throughput Screening Facility, 2010)
Over roughly 110,000 compounds, “z-score” has its median near -0.1; the highest 2% begin near 2. Some of the results follow.

Biological target: Metabotropic glutamate receptor 8 (Rattus norvegicus) (UniProt P70579)
Assay: mGluR8 Gi/Go-coupled signaling modulation – cell-based, rat, thallium flux, HTS, primary screen (AID 488969)
Settings: HEK293 rat mGluR8, GIRK (G protein-gated inwardly rectifying potassium channel) thallium flux, FluoZin2; at 10 µM; stronger effect = higher value

Chain of UniProt P70579 (P70579 whole entry, looked up): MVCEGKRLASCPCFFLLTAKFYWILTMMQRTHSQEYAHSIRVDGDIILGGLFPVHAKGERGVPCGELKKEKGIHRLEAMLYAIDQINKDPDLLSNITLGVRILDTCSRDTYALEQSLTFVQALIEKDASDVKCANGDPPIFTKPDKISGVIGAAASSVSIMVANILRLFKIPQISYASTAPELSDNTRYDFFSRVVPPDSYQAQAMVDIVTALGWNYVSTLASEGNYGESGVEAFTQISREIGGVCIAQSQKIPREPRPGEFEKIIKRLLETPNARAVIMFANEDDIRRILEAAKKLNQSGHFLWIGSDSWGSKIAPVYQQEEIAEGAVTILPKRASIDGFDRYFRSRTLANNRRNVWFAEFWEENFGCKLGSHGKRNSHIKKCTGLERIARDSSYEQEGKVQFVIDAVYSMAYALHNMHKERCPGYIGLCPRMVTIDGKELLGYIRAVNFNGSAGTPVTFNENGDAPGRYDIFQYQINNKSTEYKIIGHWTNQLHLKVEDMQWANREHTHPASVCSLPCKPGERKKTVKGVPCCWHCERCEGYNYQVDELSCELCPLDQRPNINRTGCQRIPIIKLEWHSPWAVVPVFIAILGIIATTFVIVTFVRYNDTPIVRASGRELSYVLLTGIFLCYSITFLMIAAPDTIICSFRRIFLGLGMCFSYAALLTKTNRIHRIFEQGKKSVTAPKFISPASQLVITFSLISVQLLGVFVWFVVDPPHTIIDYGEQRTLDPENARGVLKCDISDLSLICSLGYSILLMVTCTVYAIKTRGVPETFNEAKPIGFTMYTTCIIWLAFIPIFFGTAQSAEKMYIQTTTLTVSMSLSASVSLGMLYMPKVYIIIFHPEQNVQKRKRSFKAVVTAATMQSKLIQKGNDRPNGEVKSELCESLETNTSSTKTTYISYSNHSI

Point of comparison: `CN1C(=O)N(C)C(=O)C2(Cc3ccccc3N3CCOCC32)C1=O` (configuration not stated), z-score -0.0123. Against it:
- O=C(N/N=C/c1c(O)n(CCc2ccccc2)c(=O)[nH]c1=O)c1ccncc1 — higher, 0.402
- CC(c1ccccc1)n1cncc1C(=O)N1CCCC1=O (configuration not stated) — lower, -0.104
- O=C1NC(=S)N(C2CC2)C(=O)/C1=C/c1ccc2c(c1)CCN2CCCCl — lower, -0.658
- CC(=NCCCO)c1c(O)n(Cc2ccccc2)c(=O)[nH]c1=O — higher, 0.473
- Cn1c(O)c(/C=C/C=Nc2ccccc2)c(=O)n(C)c1=O — lower, -0.542
- COc1ccc(P2(=O)Nc3ccccc3N2)cc1 — lower, -0.253
- Cc1ccc2nc(-c3ccncc3)cc(C(=O)N3CCC4(CC3)OCCO4)c2c1 — higher, 0.433
- Fc1cccc(CCNCc2ccccn2)c1 — lower, -0.603
- Cc1ccc(CCN2CC(C(=O)N3CCC4(CC3)OCCO4)CC2=O)cc1 (configuration not stated) — higher, 0.645
- CC(=O)c1c(C)n(CC2CCCO2)c2ccc(O)cc12 (configuration not stated) — lower, -0.37
- Cn1c(O)c(/C=C/C=Nc2ccccc2)c(=O)n(C)c1=S — lower, -0.58
- Cn1c(O)c(C(=O)c2ccccc2)c(=O)n(C)c1=O — lower, -0.463
- O=C(CNC(=O)c1ccc(Br)cc1)Nc1ccc(Br)cc1C(=O)c1ccccc1 — lower, -0.0287
- CC(Cc1ccccc1)NC(=O)NC(C)Cc1ccccc1 (configuration not stated) — lower, -0.082
- Cc1ccc(-n2c(/C=C/c3ccc4c(c3)OCO4)nc3ccccc3c2=O)cc1 — lower, -0.143
- Fc1ccc(CCNCc2cccc(Cl)c2)cc1 — lower, -0.0585
- O=c1[nH]c(=O)n(-c2ccc(F)cc2)c(O)c1C=Nc1ccccc1N1CCCC1 — higher, 1.65
- O=c1[nH]c(=S)n(C2CC2)c(O)c1/C=N/Nc1ccccc1 — lower, -0.162
- COc1ccccc1N1CCN(Cc2cccc(OC)c2O)CC1 — higher, 0.664
- CN(C)c1ccc(/C=C2\CC3C4CC=C5CC(O)CCC5(C)C4CCC3(C)C2=O)cc1 (configuration not stated) — lower, -0.0238
- O=C(CCCOc1ccc(Cl)cc1Cl)N1CCC2(CC1)OCCO2 — lower, -0.438
- CNC(=S)N/N=C1\C2CN3CCN(C2)CC1(c1ccccc1)C3 — lower, -0.184
- Cc1ccc2c(c1)C1CN(C)CCC1N2C(=O)COc1ccc(S(=O)(=O)N2CCOCC2)cc1 (configuration not stated) — lower, -1.68
- Cc1ccccc1NC1=NCCCS1 — higher, 0.604
- COc1cccc(-n2c(-c3ccoc3)nc3ccccc3c2=O)c1 — lower, -0.34
- O=P(Nc1ccccc1)(Nc1ccccc1)Oc1cccc(Cl)c1 — higher, 0.175
- Oc1ccc(Cl)cc1CN1CCN(Cc2ccccc2)CC1 — lower, -0.13
- CN(C)C(=O)Oc1ccc(C(=O)c2ccccc2)cc1 — higher, 0.679
- Cc1cc(Cl)ccc1OCC(=O)O — lower, -0.104
- COC(=O)c1cc(C(O)(C(=O)OC)C(F)(F)F)c(/N=C/N(C)C)s1 (configuration not stated) — lower, -0.0518
- CCc1nc2ccc(Br)cc2c(=O)n1-c1ccccc1C(F)(F)F — lower, -0.44
